The whole screen tested about 320,000 compounds, of which about 7,600 (2.4%) were called active. This list was built around the results that the source calls inconclusive (neither active nor inactive); the mix of calls is not that of the screen. Calls follow the shape of the dose curve; as a rule, active = well fitted activation curve with a large enough effect; inconclusive = small, poorly fitted or top-dose-only effect; inactive = no such curve, though single readings can be large or run the other way. Potencies of inconclusive entries are left out as doubtful fits.
Assay: qHTS Assay for NPC1 Promoter Activators; also: nearly all actives have a fitted effect of over 60% in size;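 as to activation: reporter is driven by a mutant NPC1 promoter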
Conditions: Huh7 NPC1 promoter luciferase reporter, 24 h; series mostly up to 9.22 µM
In short: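 Huh7 cells stably carrying NPC1 promoter–luciferase, plated in Opti-MEM with 10% FBS for 2 h, were exposed to compound in DMSO for 24 h at 37 °C; luciferase reagent was added for 10 min and luminescence read.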
Potency is read from the fitted curve at half-maximal effect; tags tell the direction and shape of the fitted curve.

Structure (SMILES)	Potency
CC1(C)Cc2cccc(OCC(=O)NCCc3ccccc3)c2O1	inconclusive [activator, partial curve]
Cn1c(SCc2ccc(F)cc2)nnc1-c1cccs1	active: 2.24 µM
O=C(Nc1nnc(S(=O)(=O)N2CCN(c3ccc(F)cc3)CC2)s1)c1ccccc1	inconclusive [activator, partial curve]
CNc1nnc(-c2ccc(N(C)C)cc2)s1	active: 0.562 µM
O=c1[nH]c2ccccc2nc1-c1ccc(Cl)cc1	inconclusive [activator, single point]
Cc1ccnc(NC(=O)c2ccc3c(c2)S(=O)(=O)c2ccccc2C3=O)c1	inconclusive [activator, single point]
COc1ccc(-c2cc3ccc(OCC(C)=O)cc3oc2=O)cc1OC	active: 3.98 µM
Cc1nc(-c2cccc(NC(=O)c3ccc(-n4cccn4)cc3)c2)cs1	inactive
COc1cccc(/C=N/Nc2ncccc2[N+](=O)[O-])c1OC	inconclusive [activator, single point]
Cc1cccc(/C(N)=N/OC(=O)c2ccc(Cl)cc2Cl)c1	active: 0.126 µM
Cc1cccc(NC(=O)CN2C(=O)N/C(=C\c3ccc(N4CCOCC4)cc3)C2=O)c1	inconclusive [activator, partial curve]
O=C(OC(C(=O)NC1CCCC1)c1ccc(F)cc1)c1ccno1 (stereo not drawn)	inconclusive [activator, single point]
Brc1cccc(Nc2nc(-c3cccnc3)cs2)c1	inconclusive [activator, partial curve]
Cc1cc(Cl)ccc1OCC(=O)N1CCCCC1	inconclusive [activator, single point]
COCCNC(=O)c1cc2sc3ccccc3c2s1	inconclusive [activator, partial curve]
CCSc1nnc(NC(=O)c2ccc(C)o2)s1	inconclusive [activator, partial curve]
NC(=O)c1ccsc1NC(=O)c1cc(=O)c2ccccc2o1	inconclusive [activator, single point]
O=C(NC1CCCC1)c1noc2c1CCCCC2	inconclusive [activator, partial curve]
CCc1ccccc1NC(=O)c1cc(-c2ccc3c(c2)OCO3)on1	inconclusive [activator, single point]
CN(C)/C=C(\C#N)C(=O)Nc1ccc(F)c(Cl)c1	active: 3.55 µM
CCOC(=O)c1oc2c(c1C)/C(=N/O)CCC2	inconclusive [activator, partial curve]
CCOC(=O)c1csc(NC(=O)c2ccc3c(c2)OCCO3)n1	inconclusive [activator, partial curve]
Cn1ccnc1SCC(=O)c1ccc(OC(F)F)cc1	inconclusive [activator, single point]
COc1cc2ccccc2cc1C(=O)Nc1cccnc1	inconclusive [activator, single point]

Structure (SMILES)	Potency
COc1ccc(C(=O)/C=C/Nc2cc(C)ccn2)cc1	active: 0.398 µM
C(=N\Nc1nc2ccccc2[nH]1)/c1ccc2c(c1)OCO2	active: 1.58 µM
C=CCn1c(C)csc1=Nc1ccc(C(C)=O)cc1	inconclusive [activator, single point]
c1ccc2c(C3=NNC(=NC4CCCCC4)SC3)c[nH]c2c1	inactive
CC(C)NC[C@H](O)COc1cccc2ccccc12	inactive
COc1cc2c(C(=O)N(C)c3ccc(F)cc3)cn(C)c(=O)c2cc1OC	inactive
Cc1ccccc1COc1ccc(-c2nn[nH]n2)cc1	inactive
O=C(CNCc1ccco1)Nc1cccc(S(=O)(=O)N2CCCCC2)c1	inactive
Cc1cc(Br)ccc1SCC(=O)N1CCN(S(=O)(=O)c2ccccc2)CC1	inconclusive [activator, partial curve]
Cc1ccn2cc(C(=O)Nc3cccc(C(=O)NC4CC4)c3)nc2c1	inconclusive [activator, single point]
Cc1ccc(Nc2nc(N)nc(-c3oc4ccccc4c3C)n2)cc1	inconclusive [activator, partial curve]
COc1ccc(OCc2cc(C(=O)N3C[C@H]4CC[C@H]3C4)no2)c(Cl)c1	inconclusive [activator, partial curve]
CCOc1cccc2cc(-c3csc(NC(=O)CCC(=O)NCCN4CCCCC4C)n3)c(=O)oc12 (stereo not drawn)	inconclusive [activator, single point]
COc1ccc(CN(C)C(=O)c2ccc3c(=O)n4c(nc3c2)CCC4)cc1	active: 2.24 µM
Cc1ccc(C(=O)/C=C/c2ccc(-c3ccccc3[N+](=O)[O-])o2)cc1	inconclusive [activator, partial curve]
Cc1cc(C(=O)Nc2sc(C)c(C)c2C#N)no1	inactive
Cc1ccccc1C(=O)Nc1ccc(N2CCCC2)cc1	inconclusive [activator, partial curve]
COc1cc(/C=C/C(=O)NC(=O)c2ccccc2O)ccc1OC(C)=O	inconclusive [activator, single point]
Cc1ccc(CNC(=O)c2ccc[nH]2)cc1	inactive
COc1ccccc1-c1cnn2c(N3CCOCC3)cc(C)nc12	inconclusive [activator, partial curve]
Cc1ccccc1-c1nnc(-c2ccc(Br)cc2)o1	inconclusive [activator, partial curve]
CCn1c(-c2ccc(F)cc2)cnc1SCC(=O)N1CCCCC1C (stereo not drawn)	inconclusive [activator, single point]
COc1ccccc1NC(=O)Nc1nnc(C(C)C)s1	inconclusive [activator, single point]
Cc1c(NC(=O)CSc2nnc(-c3cccnc3)n2N)c(=O)n(-c2ccccc2)n1C	inactive
